This is one part of the list.
How the values were obtained:
Assay in all cases: glycan array binding signal (z-score within array); higher = stronger binding
Conditions in all cases: glycan notation: IUPAC condensed, linker removed
[1] = target: Gal(b1-4)GlcNAc(b1-3)Gal(b1-4)GlcNAc(b1-2)Man(a1-3)[Gal(b1-4)GlcNAc(b1-3)Gal(b1-4)GlcNAc(b1-2)Man(a1-6)]Man(b1-4)GlcNAc(b1-4)[Fuc(a1-6)]GlcNAc
Procedure, shortened: (§1)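 The Consortium for Functional Glycomics database supplied 3228 glycan arrays, of which those lacking an available protein sequence were dropped. The binding signal, a within-array Z-score, was averaged across arrays of the same protein sequence and across linkers. Negative scores can be read as non-binding.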

[2] = target: Gal(b1-4)GlcNAc(b1-3)Gal(b1-4)GlcNAc(b1-2)[Gal(b1-4)GlcNAc(b1-3)Gal(b1-4)GlcNAc(b1-6)]Man(a1-6)[Gal(b1-4)GlcNAc(b1-3)Gal(b1-4)GlcNAc(b1-2)Man(a1-3)]Man(b1-4)GlcNAc(b1-4)GlcNAc
Procedure, shortened: as §1

[3] = target: Gal(b1-4)GlcNAc(b1-3)Gal(b1-4)GlcNAc(b1-2)[Gal(b1-4)GlcNAc(b1-3)Gal(b1-4)GlcNAc(b1-6)]Man(a1-6)[Gal(b1-4)GlcNAc(b1-3)Gal(b1-4)GlcNAc(b1-2)Man(a1-3)]Man(b1-4)GlcNAc(b1-4)[Fuc(a1-6)]GlcNAc
Procedure, shortened: as §1

[4] = target: Gal(b1-4)GlcNAc(b1-3)Gal(b1-4)GlcNAc(b1-3)Gal(b1-4)GlcNAc
Procedure, shortened: as §1

[5] = target: Gal(b1-4)GlcNAc(b1-3)Gal(b1-4)GlcNAc(b1-3)Gal(b1-4)GlcNAc(b1-2)Man(a1-3)[Gal(b1-4)GlcNAc(b1-3)Gal(b1-4)GlcNAc(b1-3)Gal(b1-4)GlcNAc(b1-2)Man(a1-6)]Man(b1-4)GlcNAc(b1-4)GlcNAc
Procedure, shortened: as §1

[6] = target: Gal(b1-4)GlcNAc(b1-3)Gal(b1-4)GlcNAc(b1-3)Gal(b1-4)GlcNAc(b1-2)Man(a1-3)[Gal(b1-4)GlcNAc(b1-3)Gal(b1-4)GlcNAc(b1-3)Gal(b1-4)GlcNAc(b1-2)Man(a1-6)]Man(b1-4)GlcNAc(b1-4)[Fuc(a1-6)]GlcNAc
Procedure, shortened: as §1

[7] = target: Gal(b1-4)GlcNAc(b1-3)Gal(b1-4)GlcNAc(b1-3)Gal(b1-4)GlcNAc(b1-2)[Gal(b1-4)GlcNAc(b1-3)Gal(b1-4)GlcNAc(b1-3)Gal(b1-4)GlcNAc(b1-6)]Man(a1-6)[Gal(b1-4)GlcNAc(b1-3)Gal(b1-4)GlcNAc(b1-3)Gal(b1-4)GlcNAc(b1-2)Man(a1-3)]Man(b1-4)GlcNAc(b1-4)[Fuc(a1-6)]GlcNAc
Procedure, shortened: as §1

[8] = target: Gal(b1-4)GlcNAc(b1-3)Gal(b1-4)GlcNAc(b1-3)Gal(b1-4)GlcNAc(b1-3)Gal(b1-4)GlcNAc(b1-2)Man(a1-3)[Gal(b1-4)GlcNAc(b1-3)Gal(b1-4)GlcNAc(b1-3)Gal(b1-4)GlcNAc(b1-3)Gal(b1-4)GlcNAc(b1-2)Man(a1-6)]Man(b1-4)GlcNAc(b1-4)GlcNAc
Procedure, shortened: as §1

[9] = target: Gal(b1-4)GlcNAc(b1-3)Gal(b1-4)GlcNAc(b1-3)Gal(b1-4)GlcNAc(b1-3)Gal(b1-4)GlcNAc(b1-2)Man(a1-3)[Gal(b1-4)GlcNAc(b1-3)Gal(b1-4)GlcNAc(b1-3)Gal(b1-4)GlcNAc(b1-3)Gal(b1-4)GlcNAc(b1-2)Man(a1-6)]Man(b1-4)GlcNAc(b1-4)[Fuc(a1-6)]GlcNAc
Procedure, shortened: as §1

[10] = target: Gal(b1-4)GlcNAc(b1-3)Gal(b1-4)GlcNAc(b1-3)Gal(b1-4)GlcNAc(b1-3)Gal(b1-4)GlcNAc(b1-2)[Gal(b1-4)GlcNAc(b1-3)Gal(b1-4)GlcNAc(b1-3)Gal(b1-4)GlcNAc(b1-3)Gal(b1-4)GlcNAc(b1-6)]Man(a1-6)[Gal(b1-4)GlcNAc(b1-3)Gal(b1-4)GlcNAc(b1-3)Gal(b1-4)GlcNAc(b1-3)Gal(b1-4)GlcNAc(b1-2)Man(a1-3)]Man(b1-4)GlcNAc(b1-4)[Fuc(a1-6)]GlcNAc
Procedure, shortened: as §1

[11] = target: Gal(b1-4)GlcNAc(b1-3)Gal(b1-4)GlcNAc(b1-3)Gal(b1-4)GlcNAc(b1-3)Gal(b1-4)GlcNAc(b1-3)Gal(b1-4)GlcNAc(b1-2)Man(a1-3)[Gal(b1-4)GlcNAc(b1-3)Gal(b1-4)GlcNAc(b1-3)Gal(b1-4)GlcNAc(b1-3)Gal(b1-4)GlcNAc(b1-3)Gal(b1-4)GlcNAc(b1-2)Man(a1-6)]Man(b1-4)GlcNAc(b1-4)GlcNAc
Procedure, shortened: as §1

[12] = target: Gal(b1-4)GlcNAc(b1-3)Gal(b1-4)GlcNAc(b1-3)Gal(b1-4)GlcNAc(b1-3)Gal(b1-4)GlcNAc(b1-3)Gal(b1-4)GlcNAc(b1-2)Man(a1-3)[Gal(b1-4)GlcNAc(b1-3)Gal(b1-4)GlcNAc(b1-3)Gal(b1-4)GlcNAc(b1-3)Gal(b1-4)GlcNAc(b1-3)Gal(b1-4)GlcNAc(b1-2)Man(a1-6)]Man(b1-4)GlcNAc(b1-4)[Fuc(a1-6)]GlcNAc
Procedure, shortened: as §1

[13] = target: Gal(b1-4)GlcNAc(b1-3)Gal(b1-4)GlcNAc(b1-3)Gal(b1-4)GlcNAc(b1-3)Gal(b1-4)GlcNAc(b1-3)Gal(b1-4)GlcNAc(b1-2)[Gal(b1-4)GlcNAc(b1-3)Gal(b1-4)GlcNAc(b1-3)Gal(b1-4)GlcNAc(b1-3)Gal(b1-4)GlcNAc(b1-3)Gal(b1-4)GlcNAc(b1-6)]Man(a1-6)[Gal(b1-4)GlcNAc(b1-3)Gal(b1-4)GlcNAc(b1-3)Gal(b1-4)GlcNAc(b1-3)Gal(b1-4)GlcNAc(b1-3)Gal(b1-4)GlcNAc(b1-2)Man(a1-3)]Man(b1-4)GlcNAc(b1-4)[Fuc(a1-6)]GlcNAc
Procedure, shortened: as §1

[14] = target: Gal(b1-4)GlcNAc(b1-3)Gal(b1-4)GlcNAc(b1-3)Gal(b1-4)GlcNAc(b1-3)Gal(b1-4)GlcNAc(b1-3)Gal(b1-4)GlcNAc(b1-3)Gal(b1-4)GlcNAc(b1-2)Man(a1-3)[Gal(b1-4)GlcNAc(b1-3)Gal(b1-4)GlcNAc(b1-3)Gal(b1-4)GlcNAc(b1-3)Gal(b1-4)GlcNAc(b1-3)Gal(b1-4)GlcNAc(b1-3)Gal(b1-4)GlcNAc(b1-2)Man(a1-6)]Man(b1-4)GlcNAc(b1-4)GlcNAc
Procedure, shortened: as §1

[15] = target: Gal(b1-4)GlcNAc(b1-3)Gal(b1-4)GlcNAc(b1-3)GalNAc
Procedure, shortened: as §1

[16] = target: Gal(b1-4)GlcNAc(b1-3)Gal(b1-4)GlcNAc(b1-3)[Gal(b1-4)GlcNAc(b1-3)Gal(b1-4)GlcNAc(b1-6)]GalNAc
Procedure, shortened: as §1

[17] = target: Gal(b1-4)GlcNAc(b1-3)Gal(b1-4)GlcNAc(b1-6)[Gal(b1-3)]GalNAc
Procedure, shortened: as §1

[18] = target: Gal(b1-4)GlcNAc(b1-3)Gal(b1-4)[Fuc(a1-3)]GlcNAc(b1-3)Gal(b1-4)[Fuc(a1-3)]GlcNAc
Procedure, shortened: as §1

[19] = target: Gal(b1-4)GlcNAc(b1-3)GalNAc
Procedure, shortened: as §1

[20] = target: Gal(b1-4)GlcNAc(b1-3)[Fuc(a1-3)GlcNAc(b1-6)]Gal(b1-4)Glc
Procedure, shortened: as §1

[21] = target: Gal(b1-4)GlcNAc(b1-3)[Gal(b1-4)GlcNAc(b1-6)]Gal(b1-4)GlcNAc
Procedure, shortened: as §1

[22] = target: Gal(b1-4)GlcNAc(b1-3)[GlcNAc(b1-6)]Gal(b1-4)GlcNAc
Procedure, shortened: as §1

B1: BC2LB (Burholderia cenocepacia), B4EH85_BURCJ (protein)
chain: MGSSHHHHHHSSGENLYFQGHMSQPFTHDDLYALLQLAGNDATAVQANGDQAVLDRMRQFMTAQLVEKLPQYDVFVDIATIPYSFDVGSWQNKVKTDAAGEVVACTVTWAGAPGVLPGAAAKFGVGAVVNYFSKATPH
glycan array binding signal (z-score) [1]: -0.027 | glycan array binding signal (z-score) [2]: 11.3 | glycan array binding signal (z-score) [3]: -0.216 | glycan array binding signal (z-score) [4]: -0.306 | glycan array binding signal (z-score) [5]: 0.179 | glycan array binding signal (z-score) [6]: -0.032 | glycan array binding signal (z-score) [7]: -0.169 | glycan array binding signal (z-score) [8]: -0.045 | glycan array binding signal (z-score) [9]: 0.166 | glycan array binding signal (z-score) [10]: -0.198 | glycan array binding signal (z-score) [11]: -0.104 | glycan array binding signal (z-score) [12]: 0.012 | glycan array binding signal (z-score) [13]: -0.058 | glycan array binding signal (z-score) [14]: -0.107 | glycan array binding signal (z-score) [15]: -0.04 | glycan array binding signal (z-score) [16]: -0.099 | glycan array binding signal (z-score) [17]: -0.02 | glycan array binding signal (z-score) [18]: -0.201 | glycan array binding signal (z-score) [19]: -0.332 | glycan array binding signal (z-score) [20]: -0.249 | glycan array binding signal (z-score) [21]: -0.157 | glycan array binding signal (z-score) [22]: -0.082
